Data reported in PubChem BioAssay (NCATS).
Values joined by “and” are separate entries in the source; they are usually repeats but may differ in a detail not shown here. Equal values may be shown once. The shares of active, inactive and inconclusive entries below differ from those in the screen. For part of these data: A potency beside an inconclusive call is a rough fit, not a confirmed value. For part of these data: A note “side channel” means that the fit belongs to a control or component signal, not to the main read-out. Active and inactive are the calls of the source. Unless noted, the call rests on the fitted dose curve.

What was measured:
[1] = target: Androgen receptor (Homo sapiens) (UniProt P10275); assay: qHTS assay for small molecule antagonists of androgen receptor signaling (AID 588516; active means well fitted curve in the direction sought with a large enough effect in the signal ratio, with a control signal flat, not every such curve was filed as active; inconclusive means small, poorly fitted or top-dose-only effect, or effect the other way, or a change in a side signal; inactive means no such curve, though single readings can be large or run the other way; the % refers to the signal ratio; further: on the % scale 0 is the no-effect control and ±100 the full control effect); conditions: AR-UAS-bla HEK293, beta-lactamase ratio, antagonist mode, 16 h; activity change, negative = inhibition: at 76.8 µM (top of the series)
Summary of the method: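 Cells were plated and incubated 5 h, compounds added in titration, then R1881 (10 nM final) as agonist. After 16 h at 37 C, CCF4 substrate was loaded for 2 h at room temperature and fluorescence measured.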

[2] = target: Bile acid receptor (Homo sapiens) (UniProt Q96RI1); assay: qHTS assay for small molecule antagonists of farnesoid X receptor signaling (AID 588526); conditions: HEK293T FXR-UAS-bla, beta-lactamase ratio, antagonist mode; activity change, negative = inhibition: at 76.7 µM (top of the series); further: potency means the concentration at half of the fitted maximal effect; on activity change, negative = inhibition: on the % scale 0 is the no-effect control and ±100 the full control effect
Summary of the method: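 Beta-lactamase reporter antagonist mode: HEK293T FXR-UAS-bla cells, titrated compound, CDCA stimulation, 16 h 37 C, CCF4 dye 2 h RT. Data normalized to CDCA 50 uM and DMSO; Hill-fit IC50.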

[3] = target: Retinoic acid receptor RXR-alpha (Homo sapiens) (UniProt P19793); assay: qHTS assay for small molecule agonists of retinoid X receptor alpha signaling (AID 588544); conditions: HEK293T RXRa-UAS-bla, beta-lactamase reporter, 18 h; activation: at 76.7 µM (top of the series);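 further: 0% = DMSO basal wells and 100% = reference agonist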
[4] = target: Thyroid hormone receptor beta (Homo sapiens) (UniProt P10828); assay: qHTS assay for small molecule antagonists of thyroid hormone receptor beta signaling (AID 588547; active means well fitted inhibition curve with a large enough effect in the signal ratio, with a control signal flat, not every such curve was filed as active; inconclusive means small, poorly fitted or top-dose-only effect, or effect the other way, or a change in a side signal; the % refers to the signal ratio; further: potency means the concentration at half of the fitted maximal effect;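 on activity change % (negative = inhibition): cells stimulated with 0.4 nM T3 agonist during compound exposure; on the % scale 0 is the no-effect control and ±100 the full control effect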); conditions: TR-UAS-bla HEK293, beta-lactamase ratio, antagonist mode, 18 h
Summary of the method: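 Inhibition of T3-driven (0.4nM final) beta-lactamase reporter activity was measured over 0.59 nM to 92 uM compound after 18 h at 37 C. The cells were GripTite HEK293 TR-UAS-bla in charcoal/dextran-stripped serum, with CCF4 ratio read-out and IC50 from Hill fits.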

[5] = Cell Viability - LYMP2-001 (AID 921; active means well fitted curve in the direction sought with a large enough effect; inconclusive means small, poorly fitted or top-dose-only effect, or another doubt; inactive means no such curve, though single readings can be large; an effect the other way counts as inactive or inconclusive;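 further: cells exposed to compound for 24 h at 37 °C; 0% = DMSO only and full inhibition = tetraoctylammonium bromide control wells; nearly all actives have a fitted effect of over 70% in size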); conditions: LYMP2-001 lymphoblastoid cell viability; activity change, negative = cytotoxic: at 92.2 µM (top of the series)
Summary of the method: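 A lymphoblastoid cell line of human origin was treated with library compounds across a concentration series for 24 hours, and viable cell number was estimated from ATP-driven luciferase light output. Hill modeling gave AC50.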

[6] = Cell Viability - LYMP2-009 (AID 968; active means well fitted curve in the direction sought with a large enough effect; inconclusive means small, poorly fitted or top-dose-only effect, or another doubt; inactive means no such curve, though single readings can be large; an effect the other way counts as inactive or inconclusive;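 further: cells exposed to compound for 24 h at 37 °C; 0% = DMSO alone and the full-kill end = tetraoctylammonium bromide at 92 µM; nearly all actives have a fitted effect of over 55% in size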); conditions: LYMP2-009 lymphoblastoid cell viability; activity change, negative = viability loss: at 92.2 µM (top of the series)
[7] = Cell Viability - LYMP2-020 (AID 986; active means well fitted curve in the direction sought with a large enough effect; inconclusive means small, poorly fitted or top-dose-only effect, or another doubt; inactive means no such curve, though single readings can be large; an effect the other way counts as inactive or inconclusive;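 further: cells exposed to compound for 24 h at 37 °C; plate controls were DMSO only for no effect and tetraoctylammonium bromide at 92 µM for full effect; nearly all actives have a fitted effect of over 55% in size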); conditions: activity change, negative = viability loss: at 92.2 µM (top of the series)
Summary of the method: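 Seed 2500 cells per well and incubate 5 hr at 37 C. Add compounds at a concentration series and incubate 24 hr at 37 C. Add CellTiter-Glo, wait 30 min at RT, read luminescence, and fit a Hill curve for AC50.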

[8] = target: Bile acid receptor (Homo sapiens) (UniProt Q96RI1); assay: qHTS assay for small molecule agonists of farnesoid X receptor signaling (AID 588527); conditions: HEK293T FXR-UAS-bla, beta-lactamase ratio, 16 h; activation: stronger effect = higher value; further: potency means the concentration at half of the fitted maximal effect
Summary of the method: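 Agonist-mode beta-lactamase reporter in GeneBLAzer FXR-UAS-bla HEK293T cells, titration up to 92 uM, 16 h exposure at 37 C, CCF4 fluorescence. Response scaled to DMSO (0%) and 100 uM chenodeoxycholic acid (100%), then Hill-fitted for EC50 and efficacy.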

[9] = target: Peroxisome proliferator-activated receptor delta (Homo sapiens) (UniProt Q03181); assay: qHTS assay for small molecule agonists of peroxisome proliferator-activated receptor delta signaling (AID 588534); conditions: HEK293T PPARdelta-UAS-bla, beta-lactamase ratio, 18 h; activation: at 76.7 µM (top of the series) unless noted; further: potency means the concentration at half of the fitted maximal effect
Summary of the method: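 Agonist-mode qHTS; reporter cells, 5 hrs 37 C pre-incubation; compound titration, 18 hrs 37 C; CCF4 dye, 2 hrs RT; fluorescence read. EC50/efficacy via Hill fit.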

[10] = target: Peroxisome proliferator-activated receptor gamma (Homo sapiens) (UniProt P37231); assay: qHTS assay for small molecule agonists of peroxisome proliferator-activated receptor gamma signaling (AID 588536; active means well fitted curve in the direction sought with a large enough effect in the signal ratio, with a control signal flat, not every such curve was filed as active; inconclusive means small, poorly fitted or top-dose-only effect, or effect the other way, or a change in a side signal; inactive means no such curve, though single readings can be large or run the other way; the % refers to the signal ratio; further: potency means the concentration at half of the fitted maximal effect); conditions: HEK293 PPARg-UAS-bla, beta-lactamase ratio, 16 h; activation: at 76.7 µM (top of the series), percent of rosiglitazone response, DMSO as zero
Summary of the method: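 This is an agonist-mode beta-lactamase reporter assay in HEK293 PPAR-gamma-UAS-bla cells with 1% charcoal/dextran FBS. Compound titrations ran 16 h at 37 C before CCF4 detection. EC50 and efficacy are Hill fits scaled to 2 uM rosiglitazone (100%) and DMSO basal.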

[11] = target: Peroxisome proliferator-activated receptor gamma (Homo sapiens) (UniProt P37231); assay: qHTS assay for small molecule antagonists of peroxisome proliferator-activated receptor gamma signaling (AID 588537; active means well fitted inhibition curve with a large enough effect in the signal ratio, with a control signal flat, not every such curve was filed as active; inconclusive means small, poorly fitted or top-dose-only effect, or effect the other way, or a change in a side signal; the % refers to the signal ratio; further: potency means the concentration at half of the fitted maximal effect;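 further: reporter cells co-stimulated with 50 nM rosiglitazone agonist during compound treatment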; on activity, negative = inhibition: % of control where 0% means no effect); conditions: HEK293 PPARg-UAS-bla, beta-lactamase ratio, antagonist mode; activity, negative = inhibition: at 76.8 µM (top of the series) unless noted
Summary of the method: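 Antagonist-mode β-lactamase reporter screen run as a titration series. HEK293 PPARγ-UAS-bla cells are stimulated with rosiglitazone (50 nM final) for 16 h, then CCF4 is read at 460/530 nm. Data are scaled between DMSO and rosiglitazone and fitted to the Hill equation.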

[12] = target: Vitamin D3 receptor (Homo sapiens) (UniProt P11473); assay: qHTS assay for small molecule antagonists of vitamin D receptor signaling (AID 588541); conditions: HEK293T VDR-UAS-bla, beta-lactamase ratio, antagonist mode; activity change, negative = inhibition: at 76.7 µM (top of the series); further: potency means the concentration at half of the fitted maximal effect
[13] = target: Thyroid hormone receptor beta (Homo sapiens) (UniProt P10828); assay: qHTS assay for small molecule agonists of thyroid hormone receptor beta signaling (AID 588545); conditions: TR-UAS-bla GripTite HEK 293, beta-lactamase ratio, agonist mode, 18 h; activation: at 76.7 µM, percent of T3 response, DMSO as zero; further: potency means the concentration at half of the fitted maximal effect
Summary of the method: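 In this cell-based screen, titrated compounds act on HEK 293 cells held in medium with 2% charcoal/dextran FBS, NEAA and pyruvate for 18 hrs at 37 C. Responses are expressed relative to T3 (10 nM) as 100% and basal DMSO as 0%.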

[14] = target: Tumor necrosis factor (Homo sapiens) (UniProt P01375); assay: qHTS assay to identify small molecules that stimulate Tumor Necrosis Factor-alpha (TNF-alpha) secretion (AID 651757; active means well fitted curve in the direction sought with a large enough effect in the signal ratio; inconclusive means small, poorly fitted or top-dose-only effect, or a change in a side signal; inactive means no such curve, though single readings can be large or run the other way; the % refers to the signal ratio; further: 0% is about no effect); conditions: Human cells, HTRF 665/615 ratio; activation (TNF-alpha secretion): at 92.2 µM (top of the series)
Summary of the method: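 Human monocytic THP-1 cells are plated, treated with compound and held at 37 C for 17 hrs. Labeled anti-TNF-alpha antibody mixture is then added; after 3 hr at room temperature, TR-FRET signal reports secreted TNF-alpha.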

[15] = qHTS assay to identify small molecules that stimulate interleukin-8 (IL-8) secretion (AID 651758; active means well fitted activation curve with a large enough effect in the signal ratio; inconclusive means small, poorly fitted or top-dose-only effect, or effect the other way, or a change in a side signal; the % refers to the signal ratio; further: potency means the concentration at half of the fitted maximal effect); conditions: HTRF ratio (665/615); activation: at 92.2 µM (top of the series)
Summary of the method: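 Secreted IL-8 measured homogeneously by TR-FRET (two labelled anti-IL-8 antibodies, 1-3 h at room temperature) after a 16 h, 37 C compound treatment of THP-1 cells at 2000 cells/well.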

[16] = target: Peroxisome proliferator-activated receptor alpha (Homo sapiens) (UniProt Q07869); assay: qHTS assay for small molecule agonists of the peroxisome proliferator-activated receptor alpha (PPARalpha) signaling pathway (AID 651778; active means well fitted curve in the direction sought with a large enough effect; inconclusive means small, poorly fitted or top-dose-only effect, or another doubt; inactive means no such curve, though single readings can be large; an effect the other way counts as inactive or inconclusive; further: potency means the concentration at half of the fitted maximal effect; on max response: % of control where 0% means no effect); conditions: PathHunter PPARalpha complementation, chemiluminescence, 6 h; max response: stronger effect = higher value
Summary of the method: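 Chemiluminescence from complemented enzyme reported PPARalpha activation in cells after 6 hr of compound treatment at 37 C. The detection reagent was incubated for 60 min at room temperature, and compounds were scored as agonists.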

[17] = target: Nuclear receptor ROR-gamma (Homo sapiens) (UniProt P51449); assay: qHTS assay for small molecule antagonists of the retinoid-related orphan receptor gamma (ROR-gamma) signaling pathway (AID 651802; active means well fitted curve in the direction sought with a large enough effect; inconclusive means small, poorly fitted or top-dose-only effect, or another doubt; inactive means no such curve, though single readings can be large; an effect the other way counts as inactive or inconclusive; further: potency means the concentration at half of the fitted maximal effect; nearly all actives have a fitted effect of over 60% in size)
Summary of the method: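 Steps: cells dispensed; compound or DMSO transferred by pin tool; doxycycline added to induce the ROR response element-driven luciferase; plates held 16hr at 37C; ONE-Glo added and luminescence measured.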

[18] = qHTS assay for small molecule antagonists of the retinoid-related orphan receptor gamma (ROR-gamma) signaling pathway - cell viability counter screen (AID 720652; active means well fitted curve in the direction sought with a large enough effect in the repeat runs; inconclusive means weak or mixed curves; inactive means no such curve, though single readings can be large; an effect the other way counts as inactive or inconclusive;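 further: CHO reporter cells with doxycycline-induced ROR-gamma expression; compound exposure lasted 16 hr before ATP read; on the % scale 0 is the no-effect control and ±100 the full control effect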)
Summary of the method: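 Steps: seed CHO cells bearing TET-inducible ROR and ROR response element-luciferase; rest 5 hr at 37 C; add compound, then doxycycline; incubate 16 hr; add CellTiter-Glo and read luminescence as ATP-based viability.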
Tags describe the fitted curve by direction and shape or compound fluorescence and quenching.

Chain of UniProt P10828 (P10828 whole entry, looked up): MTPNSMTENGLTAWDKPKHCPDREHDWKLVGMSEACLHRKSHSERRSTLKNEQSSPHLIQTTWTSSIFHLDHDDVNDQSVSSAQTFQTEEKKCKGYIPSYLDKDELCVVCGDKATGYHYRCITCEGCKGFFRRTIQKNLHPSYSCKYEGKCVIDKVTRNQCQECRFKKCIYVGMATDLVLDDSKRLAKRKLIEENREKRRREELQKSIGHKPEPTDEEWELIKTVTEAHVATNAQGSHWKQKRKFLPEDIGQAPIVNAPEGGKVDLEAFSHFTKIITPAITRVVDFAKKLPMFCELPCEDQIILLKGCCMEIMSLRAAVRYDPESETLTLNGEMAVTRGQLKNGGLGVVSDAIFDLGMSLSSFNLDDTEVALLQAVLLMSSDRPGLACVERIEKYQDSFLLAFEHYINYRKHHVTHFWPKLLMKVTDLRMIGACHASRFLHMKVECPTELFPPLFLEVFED
Chain of UniProt Q07869 (Q07869 whole entry, looked up): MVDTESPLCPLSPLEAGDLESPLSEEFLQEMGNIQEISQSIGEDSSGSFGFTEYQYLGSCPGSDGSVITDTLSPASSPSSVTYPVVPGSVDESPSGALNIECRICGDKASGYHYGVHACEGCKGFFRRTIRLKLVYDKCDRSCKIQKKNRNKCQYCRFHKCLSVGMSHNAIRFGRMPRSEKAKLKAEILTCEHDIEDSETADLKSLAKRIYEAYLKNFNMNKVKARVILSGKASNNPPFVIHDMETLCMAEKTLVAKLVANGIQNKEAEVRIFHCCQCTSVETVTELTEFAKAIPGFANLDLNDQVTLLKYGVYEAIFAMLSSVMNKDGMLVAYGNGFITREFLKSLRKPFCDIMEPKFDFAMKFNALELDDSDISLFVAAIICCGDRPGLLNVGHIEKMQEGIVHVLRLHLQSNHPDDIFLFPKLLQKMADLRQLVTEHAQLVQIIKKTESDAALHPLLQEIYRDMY
Chain of UniProt P10275 (P10275 whole entry, looked up): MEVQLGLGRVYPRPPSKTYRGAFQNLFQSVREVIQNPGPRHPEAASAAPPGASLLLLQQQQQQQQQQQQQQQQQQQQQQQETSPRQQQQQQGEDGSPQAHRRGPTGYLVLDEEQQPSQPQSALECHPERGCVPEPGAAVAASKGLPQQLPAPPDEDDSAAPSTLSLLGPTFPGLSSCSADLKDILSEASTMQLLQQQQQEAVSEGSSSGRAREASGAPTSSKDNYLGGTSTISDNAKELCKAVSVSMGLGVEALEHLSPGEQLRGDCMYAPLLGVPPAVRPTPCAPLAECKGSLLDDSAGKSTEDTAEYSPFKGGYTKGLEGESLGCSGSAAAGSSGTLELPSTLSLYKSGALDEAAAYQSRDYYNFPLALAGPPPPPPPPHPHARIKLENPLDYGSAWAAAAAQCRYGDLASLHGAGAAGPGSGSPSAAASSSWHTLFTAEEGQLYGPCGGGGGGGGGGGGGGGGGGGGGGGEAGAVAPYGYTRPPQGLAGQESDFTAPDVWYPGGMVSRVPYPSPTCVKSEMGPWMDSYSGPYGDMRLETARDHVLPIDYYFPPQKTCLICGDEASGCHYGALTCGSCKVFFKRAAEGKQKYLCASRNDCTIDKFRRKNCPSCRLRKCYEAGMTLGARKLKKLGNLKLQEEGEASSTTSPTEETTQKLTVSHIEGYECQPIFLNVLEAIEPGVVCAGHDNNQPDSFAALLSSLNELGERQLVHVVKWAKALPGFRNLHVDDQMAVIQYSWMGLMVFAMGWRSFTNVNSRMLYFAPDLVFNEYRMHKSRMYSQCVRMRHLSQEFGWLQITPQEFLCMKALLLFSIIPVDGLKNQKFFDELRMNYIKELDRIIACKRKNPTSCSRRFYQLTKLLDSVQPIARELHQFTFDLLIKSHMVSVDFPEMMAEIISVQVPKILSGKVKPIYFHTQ
Chain of UniProt Q03181 (Q03181 whole entry, looked up): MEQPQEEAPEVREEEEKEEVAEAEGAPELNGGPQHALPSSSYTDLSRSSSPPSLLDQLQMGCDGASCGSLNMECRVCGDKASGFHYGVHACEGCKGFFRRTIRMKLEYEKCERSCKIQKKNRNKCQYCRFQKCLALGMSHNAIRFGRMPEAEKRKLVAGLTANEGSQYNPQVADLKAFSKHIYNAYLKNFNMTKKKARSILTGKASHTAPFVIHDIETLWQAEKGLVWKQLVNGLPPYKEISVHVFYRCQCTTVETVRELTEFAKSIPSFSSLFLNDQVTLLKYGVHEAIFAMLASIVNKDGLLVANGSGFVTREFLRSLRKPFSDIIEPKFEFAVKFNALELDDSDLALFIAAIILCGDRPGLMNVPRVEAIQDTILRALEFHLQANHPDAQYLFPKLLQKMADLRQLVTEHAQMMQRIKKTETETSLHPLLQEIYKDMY
Chain of UniProt P51449 (P51449 whole entry, looked up): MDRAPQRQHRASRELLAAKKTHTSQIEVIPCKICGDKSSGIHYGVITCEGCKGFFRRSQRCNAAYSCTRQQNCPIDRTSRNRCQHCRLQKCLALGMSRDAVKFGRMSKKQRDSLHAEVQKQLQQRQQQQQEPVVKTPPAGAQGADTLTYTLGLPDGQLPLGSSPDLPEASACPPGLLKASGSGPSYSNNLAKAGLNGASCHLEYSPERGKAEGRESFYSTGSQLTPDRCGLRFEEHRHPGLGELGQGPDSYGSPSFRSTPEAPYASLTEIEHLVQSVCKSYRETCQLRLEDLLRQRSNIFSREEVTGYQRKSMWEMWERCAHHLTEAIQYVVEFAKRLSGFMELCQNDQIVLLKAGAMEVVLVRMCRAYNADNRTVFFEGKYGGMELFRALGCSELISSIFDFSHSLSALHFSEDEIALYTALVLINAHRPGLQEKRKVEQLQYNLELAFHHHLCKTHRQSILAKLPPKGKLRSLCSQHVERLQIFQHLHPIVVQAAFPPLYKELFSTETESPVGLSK
Chain of UniProt P19793 (P19793 whole entry, looked up): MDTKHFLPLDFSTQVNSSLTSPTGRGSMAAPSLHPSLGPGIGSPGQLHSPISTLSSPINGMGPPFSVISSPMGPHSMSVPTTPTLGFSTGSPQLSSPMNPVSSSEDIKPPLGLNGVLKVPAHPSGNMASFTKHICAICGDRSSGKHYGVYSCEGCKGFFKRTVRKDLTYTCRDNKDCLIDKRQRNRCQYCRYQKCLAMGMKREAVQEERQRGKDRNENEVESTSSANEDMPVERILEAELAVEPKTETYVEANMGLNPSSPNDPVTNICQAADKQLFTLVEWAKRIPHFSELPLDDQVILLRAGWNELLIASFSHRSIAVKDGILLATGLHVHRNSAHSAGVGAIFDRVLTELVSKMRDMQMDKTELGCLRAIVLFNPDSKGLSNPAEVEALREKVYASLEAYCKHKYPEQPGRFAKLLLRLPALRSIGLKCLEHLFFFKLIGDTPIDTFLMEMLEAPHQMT
Chain of UniProt P01375 (P01375 whole entry, looked up): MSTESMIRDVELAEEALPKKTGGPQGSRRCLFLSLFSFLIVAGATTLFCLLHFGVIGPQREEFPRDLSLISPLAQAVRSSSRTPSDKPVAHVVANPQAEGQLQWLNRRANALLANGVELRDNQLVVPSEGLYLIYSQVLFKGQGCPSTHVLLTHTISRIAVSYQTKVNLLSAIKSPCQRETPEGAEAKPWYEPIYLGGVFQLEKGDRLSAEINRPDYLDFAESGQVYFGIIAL

Compound: CCOC(=O)C(C)Oc1ccc(Oc2nc3ccc(Cl)cc3o2)cc1 (centres undefined)
- activity change, negative = inhibition [1]: inconclusive: -46.4%
- activity change, negative = inhibition [2]: inconclusive: -10.8%
- Potency [3]: inactive
- activity change % (negative = inhibition) [4]: inconclusive: -4.1%

Compound: COc1cc(-c2ccc(N=C=O)c(OC)c2)ccc1N=C=O
- Potency [5]: inactive
- Potency [6]: inactive
- Potency [7]: inactive
- Potency [2]: inconclusive: 39.8 µM [inhibitor, partial curve]
- activity change, negative = inhibition [2]: inconclusive: -16.9%
- Potency [8]: inconclusive: 44.7 µM [side channel, falling, partial curve, poor fit]
- Potency [9]: inconclusive: 35.5 µM [side channel, falling, partial curve, poor fit]
- Potency [10]: inconclusive: 8.91 µM [activator, full curve] and inconclusive: 20 µM [cytotoxic, side channel, partial curve]
- Potency [11]: inconclusive: 50.1 µM [side channel, rising, single point]
- activity, negative = inhibition [11]: inconclusive: -93.8%
- Potency [12]: inconclusive: 35.5 µM [cytotoxic, side channel, partial curve]
- Potency [13]: inconclusive: 28.2 µM [side channel, falling, partial curve, poor fit]
- Potency [4]: inconclusive: 31.6 µM [cytotoxic, side channel, partial curve, poor fit]
- activity change % (negative = inhibition) [4]: inactive: -7.61%
- activation (TNF-alpha secretion) [14]: inconclusive: 4.64%
- Potency [15]: inconclusive: 66.8 µM [rising, single point]
- Potency [16]: inconclusive: 39.8 µM [activator, partial curve]
- max response [16]: inactive: 20.1%
- Potency [17]: inconclusive: 13.3 µM [inhibitor, partial curve, poor fit]
- Potency [18]: inactive
